Source: PubChem BioAssay AID485344 (National Center for Advancing Translational Sciences (NCATS), 2010)
About 6,900 (2%) of roughly 340,000 compounds were called active. Cut-off read from the data, not from the text of the source: active = inhibition above about 30%; inactive = below that, where a call was filed. This is a selection; strong and weak results do not stand in their true shares. Entries without a call were filed so in the source.

Biological target: D(2) dopamine receptor (Homo sapiens) (UniProt P14416)
Chain of UniProt P14416 (P14416 whole entry, looked up): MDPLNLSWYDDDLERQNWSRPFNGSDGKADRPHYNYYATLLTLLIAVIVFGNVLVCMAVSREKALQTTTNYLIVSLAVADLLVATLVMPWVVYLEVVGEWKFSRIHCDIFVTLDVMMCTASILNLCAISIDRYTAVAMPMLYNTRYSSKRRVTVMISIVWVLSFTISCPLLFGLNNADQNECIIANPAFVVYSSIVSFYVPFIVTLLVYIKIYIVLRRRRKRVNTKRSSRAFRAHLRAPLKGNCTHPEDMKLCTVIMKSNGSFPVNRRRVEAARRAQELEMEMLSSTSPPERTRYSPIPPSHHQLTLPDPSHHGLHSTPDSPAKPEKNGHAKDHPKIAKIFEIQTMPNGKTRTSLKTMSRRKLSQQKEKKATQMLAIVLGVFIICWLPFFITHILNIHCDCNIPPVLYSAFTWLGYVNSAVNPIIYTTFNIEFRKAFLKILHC
Experiment: HTS Assay for Allosteric Antagonists of the Human D2 Dopamine Receptor: Primary Screen for Antagonists; note: 0% is about no effect
Conditions: HEK293 TREx D2 cells, calcium flux, dopamine EC80; at 10 µM; stronger effect = higher value
In short: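 In this primary screen, negative modulation is detected by tracking calcium flux after an EC80 dopamine challenge in inducible HEK293 T-REx D2 cells preexposed to test compound for 180 s.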

| Structure (SMILES) | inhibition |
| --- | --- |
| COc1ccccc1NC(=O)Cn1c(=O)n(CCC(=O)NCC2CCCO2)c(=O)c2cc(OC)c(OC)cc21 (centres undefined) | 13.9% |
| Cc1ccc2nc(-c3ccc(O)cc3)c(Nc3ccc(Cl)cc3)n2c1 | 14.9% |
| CCC(=O)N1CCc2cc(S(=O)(=O)NCCC(=O)Nc3cc(C)ccc3OC)ccc21 | 6.17% |
| Cc1ccc(-c2nn(-c3ccc(F)cc3)c3c2cnc2cc(F)c(F)cc23)cc1 | 1.08% |
| CCCN(CCC)C(=O)Cn1c(=O)n(-c2ccc(Cl)cc2)c(=O)c2c3c(sc21)CCCCC3 | 5.73% |
| COc1cc(NC(=O)c2cc3c(s2)-c2ccccc2OC3)cc(OC)c1OC | -18.2% |
| CCCc1cc(=O)[nH]c(SCC(=O)N2CCN(c3ccccc3OC)CC2)n1 | -6.95% |
| CC(=O)c1ccc(Nc2nc3c(S(=O)(=O)c4ccccc4)nnn3c3ccc(Cl)cc23)cc1 | -2.72% |
| Cc1oc(-c2cccs2)nc1CN1CCC(c2ccccc2)CC1 | active: 83.3% |
| Cc1ccc(NC(=O)Cn2c(=O)c3ccccc3n3nncc23)cc1 | -17.6% |
| COc1cccc(C(=O)N(c2ccc(OC)cc2OC)C2C=CS(=O)(=O)C2)c1 (centres undefined) | active: 30.5% |
| Cc1ccc(NC(=O)c2cc([N+](=O)[O-])ccc2NCc2cccnc2)cc1 | active: 33.3% |
| O=C(Nc1cccc(F)c1)Nc1ccccn1 | active: 87% |
| Cc1cc(C)nc(/N=C(\N)Nc2ccc(OCCC(C)C)cc2)n1 | active: 51.9% |
| Cc1ccc(C)c(N2CCN(C(=O)CCc3nnc4n(CC(C)C)c(=O)c5ccccc5n34)CC2)c1 | 2.43% |
| CCn1cc(C(=O)N2CCN(c3cccc(Cl)c3)CC2)c2cc(OC)c(OC)cc2c1=O | 3.75% |
| CCOc1ccc(CNC(=O)c2cnc3sc(N4CCOCC4)nn3c2=O)cc1 | -8.41% |
| CCS(=O)(=O)N1CCc2cc(C(=O)Nc3ccc(C(=O)OC)cc3)ccc21 | -3.5% |
| Cc1ccc(CN2CCc3nc(Nc4ccc5c(c4)OCCO5)ncc3C2)cc1 | 0.176% |
| CC1=C(c2ccc(C(C)C)cc2)S(=O)(=O)NC1=NCCCN1CCN(c2ccccc2F)CC1 | 11.1% |
| Cc1ccc(-n2c3c(cc(-c4nc(-c5ccc(Cl)cc5)cs4)c2=O)C(=O)CC(C)(C)C3)cc1C | 13.7% |
| C#CCSc1nc(-c2ccccc2)cc(-c2ccccc2)c1C#N | -9.08% |
| CN(C)CCC=C1c2ccccc2CCc2ccccc21 | active: 63.6% |
| O=S(=O)(c1ccc(-c2cc(C(F)(F)F)on2)s1)N1CCN(c2ccc(F)cc2)CC1 | 7.57% |

| Structure (SMILES) | inhibition |
| --- | --- |
| COc1cc(NS(=O)(=O)c2cc3c(cc2C)N(C)CCO3)cc(OC)c1OC | 9.3% |
| COc1ccc(NC(=O)C2CCCN(c3ncnc4c3nc3n4CCCCC3)C2)c(OC)c1 (centres undefined) | -2.08% |
| Cc1cc(Br)ccc1NC(=O)Cn1cc(S(=O)(=O)N2CCN(c3ccccc3F)CC2)c2ccccc2c1=O | 5.65% |
| COc1ccc(NC(=O)c2ccc3c(SCC(=O)O)c4c(nc3c2)CCCC4)c(OC)c1 | 9.33% |
| CCc1ccc(NC(=O)CSc2ccc(-c3ccccn3)nn2)cc1 | -3.23% |
| O=C(NCCCN1CCN(c2ccc(F)cc2)CC1)c1cnn(-c2ccc(F)cc2)c1-n1cccc1 | 1.57% |
| Cc1cccc(-c2nc3c4ccccc4n(Cc4cccc(Cl)c4)c(=O)n3n2)c1 | -18.6% |
| O=C(CN1C(=O)COc2ccc(S(=O)(=O)N3CCOCC3)cc21)N1CCN(c2cccc(Cl)c2)CC1 | 0.449% |
| COc1cccc(C(=O)Nc2cccc(-c3cn4ccsc4n3)c2)c1OC | -1.62% |
| CCCCS(=O)(=O)CC(O)CSc1nc(-c2ccc(C)cc2)cc(-c2ccccc2)c1C#N (centres undefined) | 3.34% |
| CCOC(=O)/C(C#N)=C/c1ccc(-c2ccc(Br)cc2)o1 | 2.34% |
| O=C(Nc1ccc(F)cc1F)c1cc(-c2ccc(Cl)cc2)on1 | 23% |
| CCOC(=O)c1ccc(NC(=O)CCn2c(=O)c3cccn3c3cccnc32)cc1 | 4.92% |
| COc1ccc(-c2nnc(SCC(=O)Nc3cc(C)on3)o2)cc1 | active: 35.6% |
| CCN(CC)C(=O)Cn1c(=O)n(-c2ccc(C)c(C)c2)c(=O)c2c3c(sc21)CCCCC3 | 13.7% |
| CCc1cccc(NS(=O)(=O)c2ccc(-n3cccn3)cc2)c1 | 10.4% |
| CCOc1cccc(C2c3[nH]c4ccccc4c3CCN2C(=O)CSCc2ccc(F)cc2)c1 (centres undefined) | 11.8% |
| Cc1ccc2nc(COc3ccccc3NC(=O)c3ccccc3F)cc(=O)n2c1 | -5.26% |
| Cc1ccc2c(c1)c(CC(=O)Nc1ccc(C)c(F)c1)c(C(=O)O)n2C | -1.7% |
| CCc1cccc(NC(=O)C2Cc3ccccc3N2C(=O)c2ccccc2)c1 (centres undefined) | -11.5% |
| NC(=O)Cn1c(=O)n(CCCCCC(=O)NCc2ccc(F)cc2)c(=O)c2sccc21 | -2.81% |
| O=C(C1COc2ccccc2O1)N(Cc1cccnc1)c1nc2c(Cl)cccc2s1 (centres undefined) | 9.98% |
| COc1ccc(OC)c(NC(=O)CSc2ncc3c(n2)-c2ccccc2N(C)S3(=O)=O)c1 | -7.4% |
| CCCNC(=O)c1ccc(-c2nc(CS(=O)(=O)c3ccc(C)cc3)c(C)o2)cc1 | 0.0058% |

| Structure (SMILES) | inhibition |
| --- | --- |
| CCOC(=O)N1CCN(Cc2nc3cc(NC(=O)C(C)C)ccc3n2C(C)C)CC1 | -10.6% |
| c1ccc(CCCCNCC2COc3ccccc3O2)cc1 (centres undefined) | active: 95.9% |
| O=C(c1ccc(F)cc1)N1CCC(c2nc(-c3ccc(S(=O)(=O)N4CCCC4)cc3)no2)CC1 | 1.59% |
| COc1ccccc1N(CC(=O)Nc1ccc2c(c1)OCO2)S(=O)(=O)c1ccc(C)cc1 | -0.187% |
| O=C(Cn1cnc2onc(-c3ccc(F)cc3)c2c1=O)Nc1ccc(F)c(Cl)c1 | 0.221% |
| O=C(CN1c2ccccc2S(=O)(=O)c2ccccc21)Nc1ccccc1Cl | 5.39% |
| CCOc1ccc(S(=O)(=O)c2cn(Cc3ccccc3C)c3ccc(OC)cc3c2=O)cc1 | -5.85% |
| CCC(=O)NC1CC2CCCC(C1)N2Cc1ccc(C)cc1 (centres undefined) | active: 93.4% |
| CCc1nn(CC(=O)NCCCN2CCN(CC)CC2)c(=O)c2cc3occc3n12 | -4.21% |
| CCCOc1ccc(-c2nonc2NC(=O)c2oc3ccc(Cl)cc3c2C)cc1OCCC | 5.52% |
| COc1ccc(NC(=O)c2ccc(OCC3CCCO3)cc2)cc1Cl (centres undefined) | active: 47.4% |
| O=C(/C=C/c1ccc(N2CCC(c3ccccc3)=N2)cc1)c1ccccc1 | active: 32.7% |
| Cc1nn(C)c2c1c(C(F)(F)F)cc(=O)n2C(C)C(=O)NCCc1ccccc1 (centres undefined) | 1.05% |
| O=C(Nc1nc2n(n1)C(c1ccc(Cl)cc1)C=C(c1ccccc1)N2)c1ccco1 (centres undefined) | 4.04% |
| COc1ccc(CCNC(c2ccc(F)cc2)c2nnc(-c3ccccc3Cl)o2)cc1OC (centres undefined) | 4.02% |
| COc1ccc2c(Sc3ccc(C)cc3)c(C(=O)NCCc3ccccc3)[nH]c2c1 | -5.64% |
| COc1ccc(-c2c3c(=O)n(C)c(=O)n(C)c3c3n2-c2ccccc2NC3c2ccc(O)cc2O)cc1 (centres undefined) | -11% |
| Cc1cc(OCCCn2c(CCNC(=O)C3CCCCC3)nc3ccccc32)ccc1Cl | 12.7% |
| COc1ccc(N(CC(=O)Nc2cccc(C(C)=O)c2)S(=O)(=O)c2ccccc2)c(OC)c1 | 10.8% |
| OCc1cnc(SCc2ccc(F)cc2)n1Cc1ccc(F)cc1 | 16.8% |
| O=C(CSc1nc(-c2cccs2)nc2cc(=O)[nH]n12)Nc1cccc(C(F)(F)F)c1 | 2.52% |
| CCOCc1c(C(=O)N2CCN(CC(=O)Nc3ccc(F)cc3)CC2)oc2ccccc12 | active: 71.7% |
| O=C(CSc1n[nH]c(-c2ccccc2)n1)N1CCN(c2ccccc2F)CC1 | 3.78% |
| COc1cccc(NC(=O)c2sc3nc(C)c(C(=O)Nc4ccc(Cl)cc4)c(-c4ccc(Br)cc4)c3c2N)c1 | -15.3% |

| Structure (SMILES) | inhibition |
| --- | --- |
| Cc1cccc(NC(=O)c2sc3nc(-c4ccccc4)cn3c2C)c1C | -13.1% |
| CCc1ccc(NC(=O)C2CCC(CNS(=O)(=O)c3ccc4c(c3)C(C)(C)C(=O)N4C)CC2)cc1 (centres undefined) | 2.61% |
| COc1ccc2c(CNCc3ccccc3OC)c(C(=O)O)n(Cc3ccc(F)cc3Cl)c2c1 | -2.3% |
| COc1ccc(C)cc1NC(=O)c1cc(S(=O)(=O)N2CCC(C)CC2)cn1C | 2.37% |
| Cc1cccc(N2CCN(C(=O)c3c(C)oc4ncnc(N5CCOCC5)c34)CC2)c1C | 2.07% |
| Nc1cc(=O)nc(SCC(=O)Nc2ccc(F)cc2)n1-c1cccc(Cl)c1 | 21.8% |
| Cc1nn(C(=O)COc2ccccc2Br)c(C)c1Sc1ccccc1 | -12.6% |
| COc1ccc(CCN2C(=O)N(c3ccc(C)cc3)C(=O)C2CC(=O)Nc2ccc(F)cc2)cc1 (centres undefined) | -28.2% |
| CCc1ccc(NC(=O)C(NS(=O)(=O)c2cccc3nsnc23)c2ccccc2)cc1 (centres undefined) | 4.29% |
| COc1ccc(CN2C(=O)N(c3ccc(F)cc3)C(=O)C2CC(=O)Nc2cc(OC)cc(OC)c2)cc1 (centres undefined) | 9.15% |
| CC(=O)c1c(C)oc2ccc(N(C(=O)Oc3ccccc3)S(=O)(=O)c3ccccc3)cc12 | 2.91% |
| Cc1ccc(S(=O)(=O)c2c(Nc3cc(C)ccc3C)sc(C(=O)c3ccc4c(c3)OCO4)c2N)cc1 | 24.3% |
| CC(CNC(=O)c1cc(-c2ccccc2)n[nH]1)c1ccccc1 (centres undefined) | -5.86% |
| CC1CCCN(c2c(S(=O)(=O)c3ccccc3)cnc3ccc(Cl)cc23)C1 (centres undefined) | 17.4% |
| Cc1ccc(Cl)cc1NC(=O)N1CCC2(CC1)Oc1ccccc1C(=O)N2Cc1ccccc1F | 6.32% |
| CCS(=O)(=O)N1CC(=O)N(c2cc(C)ccc2C)C(C)(C(=O)NC2CCCCC2)C1 (centres undefined) | -13.7% |
| COc1ccc(-n2nnc(-c3nsc(NC(=O)c4cccs4)n3)c2C)cc1OC | 14.2% |
| Cc1c(Cl)cccc1NC(=O)C(CCS(C)(=O)=O)N1Cc2ccccc2C1=O (centres undefined) | -5.27% |
| Cc1cccc(NC(=O)C(=O)NCCc2sc(-c3ccccc3)nc2C)c1C | -6.11% |
| COc1ccc(-c2cn3c(n2)sc2cc(C(=O)NC4CCCCCC4)ccc23)cc1 | -7.48% |
| CC1C(=O)Nc2ccc(S(=O)(=O)NCc3ccc(N(C)C)cc3)cc2NC1=O (centres undefined) | 25.1% |
| COc1ccc(OCCn2c(C(C)Oc3ccccc3)nc3ccccc32)cc1 (centres undefined) | -6.96% |
